# Several values for one entry are separate records, joined by “and”; a condition that tells them apart may be missing. Equal entries are not always repeated. Structures can show the parent of a compound that is named as a salt. ± gives the standard deviation of the averaged measurements. The full ranking holds about 2,600 compounds; the median of “MBP+ mature oligodendrocyte number relative to DMSO vehicle control” is about -0.34, and the highest 2% start at about 13. The list shows a part of the results.
# System: jimpy (Plp1 jimpy) mouse iPSC-derived oligodendrocyte progenitor cells
# Assay: MBP+ mature oligodendrocyte number relative to DMSO vehicle control (SDs above negative control mean); higher = more surviving jimpy oligodendrocytes (rescue)
# Conditions: 10 µM; 3 days
# 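Also: 10 µM single dose with 3-day oligodendrocyte differentiation.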
row,SMILES,MBP+ mature oligodendrocyte number
1,Cn1nc(C(C)(C)C)cc1C(=O)N[C@@H](Cc1cccc(Cl)c1)C(=O)NCC#N [Cathepsin Inhibitor 1],-0.61
2,CN(c1ncccc1CNc1nc(Nc2ccc3c(c2)CC(=O)N3)ncc1C(F)(F)F)S(C)(=O)=O,< -6.01 and -6.1
3,CC(CNC(=O)c1cccnc1)NC(=O)c1cccnc1 (configuration not stated) [Nicaraven],1.84
4,O=C(Nc1ccccc1)N1CCN(c2nc(-c3ccccc3)ns2)CC1,7.25
5,O=C(NC(Cc1cc(=O)[nH]c2ccccc12)C(=O)O)c1ccc(Cl)cc1 (configuration not stated) [Rebamipide],-0.377
6,CCN1C(=O)C=CC1=O [N-Ethylmaleimide],-0.073
7,CC(C)c1cc(C(C)C)c(CC(=O)NS(=O)(=O)Oc2c(C(C)C)cccc2C(C)C)c(C(C)C)c1 [Avasimibe],0.731
8,O=C(NNc1nc2cc(F)ccc2n2cccc12)c1cnccn1,< -6.35
9,C[N+](C)(C)CCOC(N)=O [Carbachol],-0.236
10,COC(=O)/C=C/C(=O)OC [Dimethyl Fumarate],-0.612
11,CCOC(=O)C1=C(C)NC(C)=C(C(=O)OC)C1c1cccc(Cl)c1Cl (configuration not stated) [Felodipine],9.79 ± 0.78
12,Cc1nc2sccn2c(=O)c1CCN1CCC(=C(c2ccc(F)cc2)c2ccc(F)cc2)CC1 [Ritanserin],2.29
13,O=C1c2c(O)ccc(O)c2C(=O)c2c(NCCNCCO)ccc(NCCNCCO)c21 [Mitoxantrone HCl],< -4.81
14,O=C1c2c(O)ccc(O)c2C(=O)c2c(NCCNCCO)ccc(NCCNCCO)c21 [Mitoxantrone],< -3.97
15,CCOC(=O)c1ccc(NC2CCCCC2)c(N)c1 [Ferrostatin-1],3.81
16,CCOC(=O)c1ccc(NC2CCCCC2)c(N)c1 [Ferrostatin-1 (Fer-1)],5.47
17,Cc1ccc(Nc2nccc(N(C)c3ccc4c(C)n(C)nc4c3)n2)cc1S(N)(=O)=O [Pazopanib],-2.91
18,Cc1ccc(Nc2nccc(N(C)c3ccc4c(C)n(C)nc4c3)n2)cc1S(N)(=O)=O,-1.72
19,CCc1ccc(/C=C2/SC(=S)NC2=O)cc1,1.19 ± 1.6
20,CCCCC(=O)N(Cc1ccc(-c2ccccc2-c2nnn[nH]2)cc1)[C@H](C(=O)O)C(C)C [Valsartan],-0.557
21,COc1cc(Nc2ncc3c(n2)-c2ccc(Cl)cc2C(c2c(F)cccc2OC)=NC3)ccc1C(=O)O [Alisertib (MLN8237)],-3.03
22,C=CCNc1ncnc2ccc(Br)cc12,-1.35
23,CCOC(CN1CCN(CC(C)C(=O)c2ccccc2)CC1)c1ccccc1 (configuration not stated) [Eprazinone 2HCl],4.71
24,OCC(CO)N[C@H]1C[C@](O)(CO)[C@@H](O)[C@H](O)[C@H]1O [Voglibose],1.08
25,O=C(O)c1cc(=O)c2ccccc2[nH]1 [Kynurenic acid],2.3
26,Cc1cnc(NC(=O)Nc2cc(Br)c(C)cc2OC[C@@H]2CNCCO2)cn1,< -6.01

row,SMILES,MBP+ mature oligodendrocyte number
1,"Cc1c(C(=O)Nc2ccc(N3C[C@@H](C)O[C@@H](C)C3)nc2)cccc1-c1ccc(OC(F)(F)F)cc1 [LDE225 (NVP-LDE225,Erismodegib)]",-2.74
2,"Nc1cc(C(F)(F)F)c(-c2cc(N3CCOCC3)nc(N3CCOCC3)n2)cn1 [BKM120 (NVP-BKM120, Buparlisib)]",-4.7
3,CC(C)NNC(=O)c1ccncc1 [Iproniazid phosphate],-0.245
4,Cc1ccc(Sc2cncc3sc(C(N)=O)cc23)cc1,1.14
5,CN1c2ccccc2C(=O)N2CCc3c([nH]c4ccccc34)C21 (stereo in doubt) [Evodiamine],-2.4
6,O=c1cc(N2CCOCC2)oc2c(-c3ccccc3)cccc12,-0.153
7,"O=c1cc(N2CCOCC2)oc2c(-c3ccccc3)cccc12 [LY-294,002 hydrochloride]",-1.77
8,CN1C(C(=O)Nc2ccccn2)=C(O)c2sc(Cl)cc2S1(=O)=O [Lornoxicam],0.433
9,CC12CC3CC(C)(C1)CC(N)(C3)C2 [Memantine HCl],0.433
10,CC12CC3CC(C)(C1)CC(N)(C3)C2 [Memantine hydrochloride],-0.206
11,Cc1ccc(CNc2ncnc3ccc(-c4ccc(CO)o4)cc23)o1,-0.386
12,COc1ccc(-c2cc(=O)c3c(OC)c(OC)c(OC)c(OC)c3o2)cc1 [Tangeretin],-4.14
13,O=C(O)c1ccc(C=C2SC(=S)N(c3cccc(C(F)(F)F)c3)C2=O)cc1,2.43
14,CC(C)c1nc(CN(C)C(=O)N[C@@H](CCN2CCOCC2)C(=O)N[C@H](CC[C@H](Cc2ccccc2)NC(=O)OCc2cncs2)Cc2ccccc2)cs1 [Cobicistat (GS-9350)],-4.02
15,C#C[C@]1(O)CC[C@H]2[C@@H]3CCC4=Cc5oncc5C[C@]4(C)[C@H]3CC[C@@]21C [Danazol],4.9
16,Cc1cccc(-c2nn3c(c2-c2ccnc4ccc(C(N)=O)cc24)CCC3)n1,-2.18
17,O=C(Nc1cccnc1)N1CCC(Cc2cccc(Oc3ccc(C(F)(F)F)cn3)c2)CC1 [PF 3845 hydrate],10.1
18,O=C(Nc1cccnc1)N1CCC(Cc2cccc(Oc3ccc(C(F)(F)F)cn3)c2)CC1,19.5
19,O=C(Nc1ccc([N+](=O)[O-])cc1Cl)c1cc(Cl)ccc1O [Niclosamide],-2.83
20,Cc1cc(C)nc(NS(=O)(=O)c2ccc(NC(=S)NC(=O)COc3ccc(Br)cc3Cl)cc2)n1,-0.692
21,O=c1cc[nH]c(=O)[nH]1 [Uracil],1.5
22,CCOC(=O)N1c2ccc(C(F)(F)F)cc2[C@@H](N(Cc2cc(C(F)(F)F)cc(C(F)(F)F)c2)C(=O)OC)C[C@H]1CC [Torcetrapib],-0.372
23,Cc1ccc(C(=O)Nc2cccc(C(F)(F)F)c2)cc1Nc1nc(-c2cccnc2)nc2c1cnn2C,< -4.81
24,COc1ccc(-c2cc(=O)c3c(OC)c(OC)c(OC)c(OC)c3o2)cc1OC [Nobiletin],-4.53
25,CCC[C@@H]1C[C@@H](C(=O)N[C@@H]([C@H]2O[C@H](SC)[C@H](O)[C@@H](O)[C@H]2O)[C@@H](C)O)N(C)C1 [Lincomycin HCl],2.41
26,N#Cc1c(Oc2ccc(F)c(NC(=O)Cc3cccc(C(F)(F)F)c3)c2)ccc2nc(NC(=O)C3CC3)sc12,-1.96

row,SMILES,MBP+ mature oligodendrocyte number
1,CO[C@H]1C[C@@H]2CC[C@@H](C)[C@@](O)(O2)C(=O)C(=O)N2CCCC[C@H]2C(=O)O[C@H]([C@H](C)C[C@@H]2CC[C@@H](OC(=O)C(C)(CO)CO)[C@H](OC)C2)CC(=O)[C@H](C)/C=C(\C)[C@@H](O)[C@@H](OC)C(=O)[C@H](C)C[C@H](C)/C=C/C=C/C=C/1C,-5.21
2,CO[C@H]1C[C@@H]2CC[C@@H](C)[C@@](O)(O2)C(=O)C(=O)N2CCCC[C@H]2C(=O)O[C@H]([C@H](C)C[C@@H]2CC[C@@H](OC(=O)C(C)(CO)CO)[C@H](OC)C2)CC(=O)[C@H](C)/C=C(\C)[C@@H](O)[C@@H](OC)C(=O)[C@H](C)C[C@H](C)/C=C/C=C/C=C/1C [Temsirolimus],-2.95
3,NNC(=O)c1ccncc1 [Isoniazid],-0.197
4,CN(C(=O)CCCOc1ccc2[nH]c(=O)ccc2c1)C1CCCCC1 [Cilostamide],1.65
5,COc1ccc(Br)cc1S(=O)(=O)NC(=O)/C=C/c1ccccc1Cc1ccc2ccccc2c1,0.117
6,Cc1ccc(S(=O)(=O)OCC(=O)Nc2ccc(C(=O)O)c(O)c2)cc1,2.29
7,C[C@H]1C[C@H]2[C@@H]3CCC4=CC(=O)C=C[C@]4(C)[C@H]3C(=O)C[C@]2(C)[C@@]1(O)C(=O)CO [Meprednisone],0.433
8,O=C(O)CCCN1CCC(O[C@@H](c2ccc(Cl)cc2)c2ccccn2)CC1 [Bepotastine Besilate],0.739
9,O=C(Nc1ncc(SCCN2CCCC2)s1)[C@]1(c2ccc(S(=O)(=O)C3CC3)cc2)C[C@H]1C1CCCCC1,< -4.81
10,O=C(O)c1cccnc1 [Nicotinic Acid],-0.287
11,CCCCc1oc2ccccc2c1C(=O)c1cc(I)c(OCCN(CC)CC)c(I)c1 [Amiodarone hydrochloride],< -3.34
12,CCCCc1oc2ccccc2c1C(=O)c1cc(I)c(OCCN(CC)CC)c(I)c1 [Amiodarone HCl],< -5.15
13,CN1CCN(c2ccc3nc(-c4c(N)c5c(F)cccc5[nH]c4=O)[nH]c3c2)CC1 [Dovitinib (TKI-258) Dilactic Acid],< -6.01
14,"CN1CCN(c2ccc3nc(-c4c(N)c5c(F)cccc5[nH]c4=O)[nH]c3c2)CC1 [Dovitinib (TKI-258, CHIR-258)]",-6.35
15,O=c1[nH]c(=O)n([C@H]2C[C@H](O)[C@@H](CO)O2)cc1I [Idoxuridine],0.973
16,Cc1cccc(N(C)C(=S)Oc2ccc3ccccc3c2)c1 [Tolnaftate],1.42
17,C=CCNC1=C2C[C@@H](C)C[C@H](OC)[C@H](O)[C@@H](C)/C=C(\C)[C@H](OC(N)=O)[C@@H](OC)/C=C\C=C(/C)C(=O)NC(=CC1=O)C2=O [17-AAG (Tanespimycin)],-6.44
18,N[C@@H](COP(=O)(O)O)C(=O)O [O-Phospho-L-serine],0.0686
19,COc1ccc(-c2ccc3cc(C(=O)O)ccc3c2)cc1C12CC3CC(CC(C3)C1)C2 [Adapalene],0.807
20,O=C(O)c1cc2cc(F)ccc2[nH]1 [5-Fluoroindole-2-carboxylic acid],-0.708
21,NCCc1ccc(O)c(O)c1 [Dopamine HCl],0.0594
22,NCCc1ccc(O)c(O)c1 [Dopamine hydrochloride],10.5
23,C[C@H](Cc1ccc(O)c(O)c1)[C@@H](C)Cc1ccc(O)c(O)c1,< -3.97
24,COc1ccccc1CN[C@H]1CCCN[C@H]1c1ccccc1,-0.711
25,NC(N)=NC(N)=Nc1ccccc1 [1-Phenylbiguanide],0.289

# Reference: the supplement of paper PMC6135742
